Patent US20050048462A1, “Markers and screens” (priority 2001, published 2005)
Where a name gives a salt, the structure may show the parent alone. Read-outs that look alike come from different tables or passages of the source.

System: profilin II-GFP transfected hippocampal neurons
[1] = with glutamate while blocking receptor subtype, APV 500 μM, MK-801 50 μM, CNQX 20 μM, NBQX 20 μM, MCPG 100 μM-1 mM, Ly341495 30 μM, 15 min preincubation
[2] = 90 mM KCl 4 times for 3 min with 10 min intervals
[3] = [Ca2+]0 0, 30 min, glutamate 10 μM, thapsigargin 1 μM
[4] = [Ca2+]0 2 mM, 30 min, glutamate 10 μM, thapsigargin 1 μM
[5] = agonist alone, 30 min, glutamate 10 μM, NMDA 10 μM, DHPG 10 μM, AMPA 2 μM

For N[C@H](CCCP(=O)(O)O)C(=O)O [APV, D(−)-2-amino-5-phosphonopentanoic acid], which “Numbers of cells − (no targeting)” value (90 mM KCl (spaced) + 100 μM APV) is on record?
The value was 7.

And the “Cells showing any redistribution of profilin to spines” value (90 mM KCl, continuous (n=5) and spaced (n=7), in the presence of APV)?
The value was “none”.

And the “Effect on glutamate-induced profilin II targeting (in words)” value (glutamate with NMDA receptors blocked)?
The value was “greatly reduced”.

And the “Number of cells + (partial profilin II-GFP targeting)” value [1]?
The value was 5.

What about the “Number of cells ++ (strong profilin II-GFP targeting)” value [1] of the same compound?
Its value is “none”.

What about the “Number of cells − (no profilin II-GFP targeting)” value [1] of the same compound?
The value was 17.

For [Cl-].[K+] [KCl], which “Numbers of cells + (weak targeting)” value [2] is on record?
Its value is 2.

And the “Numbers of cells ++ (strong targeting)” value [2]?
The value was 3.

And the “Shift of profilin II into spines (in words)” value (90 mM KCl continuously for 30 min (n=2))?
The value was “weak shift”.

For C/C=C(/C)C(=O)O[C@H]1C(C)=C2[C@H]([C@@H]1OC(=O)CCCCCCC)[C@@](C)(OC(C)=O)C[C@H](OC(=O)CCC)[C@@]1(O)[C@H]2OC(=O)[C@@]1(C)O [Thapsigargin, thapsigargin], which “Numbers of cells + (weak targeting of profilin II-GFP)” value [3] is on record?
Its value is 2.

What about the “Numbers of cells − (no targeting of profilin II-GFP)” value [3] of the same compound?
Its value is 5.

And the “Numbers of cells + (weak targeting of profilin II-GFP)” value [4]?
Its value is 5.

What about the “Numbers of cells ++ (strong targeting of profilin II-GFP)” value [4] of the same compound?
Its value is 5.

What about the “Numbers of cells − (no targeting of profilin II-GFP)” value [4] of the same compound?
The value was 5.

What about the “Profilin II targeting to spines (in words)” value (absence of extracellular Ca2+, glutamate 10 μM, thapsigargin 1 μM) of the same compound?
Its value is “only weak redistribution of profilin II in a minority of cells”.

And the “Cells showing accumulation of profilin II in spines” value (thapsigargin 1 μM, extracellular Ca2+ present, out of 15 cells tested)?
The value was 10.

For C[C@]12N[C@H](Cc3ccccc31)c1ccccc12 [MK-801, (5R,10S)-(+)-5-methyl-10,11-dihydro-5H-dibenzo[a, d]cyclohepten-5,10-imine hydrogen maleate], which “Number of cells − (no profilin II-GFP targeting)” value ([…], APV 500 μM, MK-801 50 μM, CNQX 20 μM, NBQX 20 μM, MCPG 100 μM-1 mM, Ly341495 30 μM, 15 min preincubation) is on record?
The value was 6.

Which “Time at which redistribution of profilin II-GFP into spine heads was maximal” value (10 μM glutamate) does the source give for N[C@@H](CCC(=O)O)C(=O)O [glutamate] here?
Its value is 30 min.

What about the “Numbers of cells − (no targeting of profilin II-GFP)” value [3] of the same compound?
The value was 5.

What about the “Number of cells in category + (partial targeting of profilin II-GFP to spines)” value [5] of the same compound?
Its value is 3.

And the “Number of cells in category ++ (strong targeting of profilin II-GFP to spines)” value [5]?
Its value is 22.

What about the “Number of cells in category − (no targeting of profilin II-GFP to spines)” value [5] of the same compound?
The value was 1.

What about the “Profilin II-GFP redistribution to dendritic spines (in words)” value (agonist alone, glutamate 10 μM, NMDA 10 μM, DHPG 10 μM) of the same compound?
The value was “strong redistribution”.

And the “Profilin II concentration in spine heads after long post-stimulus incubation (in words)” value (glutamate 30 min, then 4 or 16 hours in medium without glutamate (n=10 cells at 4 h, 4 cells at 16 h))?
Its value is “undiminished levels”.
